# Source: PubChem BioAssay AID602310 (National Center for Advancing Translational Sciences (NCATS), 2012)
# Screen size: about 410,000 compounds; about 310 (0.076%) were called active. This list was built around the results that the source calls inconclusive (neither active nor inactive); the mix of calls is not that of the screen. Calls come from the whole dose curve; as a rule, active = well fitted curve in the direction sought with a large enough effect; inconclusive = small, poorly fitted or top-dose-only effect; inactive = flat fitted curve, though single readings scatter. Potencies of inconclusive entries are doubtful fits and often do not repeat.
# Molecular target: DNA dC->dU-editing enzyme APOBEC-3G (Homo sapiens) (UniProt Q9HC16)
# Assay: qHTS for Inhibitors of Vif-A3G Interactions: qHTS; note: nearly all actives have a fitted effect of over 60% in size
# Conditions: HeLa A3G-eYFP + Vif (tagged APOBEC3G with the HIV-1 protein that degrades it), YFP fluorescence, overnight; series mostly up to 46.1 µM
# Summary of the method: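 Read-out is eYFP fluorescence (Ex 488/Em 500-530) from Vif-expressing HeLa A3G-eYFP cells; more signal means A3G escaped Vif-mediated degradation. Cells plated overnight, compound pinned in, incubated overnight at 37 deg C.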
# Potency is the fitted concentration of half-maximal effect; tags give direction and shape of the fitted curve.
# Chain of UniProt Q9HC16 (Q9HC16 whole entry, looked up): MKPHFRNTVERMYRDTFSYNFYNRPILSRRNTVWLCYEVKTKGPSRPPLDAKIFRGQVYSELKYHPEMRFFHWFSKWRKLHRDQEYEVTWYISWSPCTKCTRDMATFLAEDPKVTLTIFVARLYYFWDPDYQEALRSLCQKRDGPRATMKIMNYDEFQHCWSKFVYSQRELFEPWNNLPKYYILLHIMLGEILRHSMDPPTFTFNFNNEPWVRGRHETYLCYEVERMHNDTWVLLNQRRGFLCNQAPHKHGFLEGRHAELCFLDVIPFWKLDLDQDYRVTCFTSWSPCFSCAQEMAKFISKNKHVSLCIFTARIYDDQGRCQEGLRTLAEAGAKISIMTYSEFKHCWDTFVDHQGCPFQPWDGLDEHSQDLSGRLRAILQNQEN
row,Structure (SMILES),Potency
1,O=C(Nc1ccc(N2CCCC2)cc1)c1cc(Br)ccc1Cl,"inconclusive: 3.98 µM [inhibitor, full curve, poor fit]"
2,FC(F)(F)c1ccccc1NC(=S)NN=C1CCCCCC1,"inconclusive: 22.4 µM [inhibitor, partial curve, poor fit]"
3,CCOc1ccc(-c2cc(C(=O)N/N=C/c3cccnc3)c3ccccc3n2)cc1,"inconclusive: 2 µM [inhibitor, full curve, poor fit]"
4,O=C(/C=C/c1ccccc1)CCN1CCOCC1,"inconclusive: 22.4 µM [inhibitor, single point]"
5,Cc1ccccc1NC1=C/C(=N\S(=O)(=O)c2ccc(C(=O)O)cc2)c2ccccc2C1=O,inactive
6,C=CCn1c(O)c(N=NC(=S)Nc2ccccc2C)c2cc(S(=O)(=O)N3CCOCC3)ccc21,"inconclusive: 1.78 µM [inhibitor, partial curve, poor fit]"
7,COc1ccc(NS(=O)(=O)c2cccc(C(=O)NNC(=O)c3cc(C)oc3C)c2)cc1,inactive
8,Cc1ccc(-c2cc(-c3ccccc3)nc(N)c2C#N)o1,"inconclusive: 35.5 µM [inhibitor, single point]"
9,COC(=O)C1=CN(c2cccc(C(F)(F)F)c2)C=C(C(=O)OC)C1c1ccc(O)c(OC)c1,"inconclusive: 25.1 µM [inhibitor, single point]"
10,O=C(/C=C/c1ccccc1)Oc1cccc2cccnc12,"inconclusive: 22.4 µM [inhibitor, single point]"
11,COc1cccc(CNC(=O)CCS(=O)(=O)c2ccccc2Cl)c1,inactive
12,Cc1ccsc1C(=O)NNC(=O)Nc1ccc(Cl)c(Cl)c1,inactive
13,O=C(NN=Cc1c(O)ccc2ccccc12)c1ccc2c(c1)OCO2,"inconclusive: 1.58 µM [inhibitor, full curve, poor fit]"
14,Cc1cc2n(n1)CCCN2C(=O)Nc1ccc(Cl)cc1,"inconclusive: 22.4 µM [inhibitor, single point]"
15,CCCCN(C)CC(O)Cn1cc(/C=C/C(=O)c2ccc(OC)c(OC)c2)c2ccccc21 (stereo not drawn),"inconclusive: 35.5 µM [inhibitor, single point]"
16,COc1ccc2ccc(OC)c(/C=N/NC(=O)c3cc4ccccc4o3)c2c1,"inconclusive: 7.94 µM [inhibitor, partial curve, poor fit]"
17,O=C(NN(c1ccccc1)c1ccccc1)c1ccc([N+](=O)[O-])o1,"inconclusive: 22.4 µM [inhibitor, partial curve, poor fit]"
18,CCCOc1ccc(Cl)cc1CNc1ccccc1,"inconclusive: 10 µM [inhibitor, partial curve]"
